Source: article PMC4336329 (PLoS ONE, 2015)
In all, about 310,000 compounds went through this assay and about 2,200 (0.71%) showed an effect of 50% or more. Effects have a minus sign here. Some of the results follow.

target: human ether-à-go-go-related gene (hERG) potassium channel (human, UniProt Q12809); assay: primary screen, population patch clamp on CHO cells stably expressing hERG
Sequence (Q12809 whole entry, looked up): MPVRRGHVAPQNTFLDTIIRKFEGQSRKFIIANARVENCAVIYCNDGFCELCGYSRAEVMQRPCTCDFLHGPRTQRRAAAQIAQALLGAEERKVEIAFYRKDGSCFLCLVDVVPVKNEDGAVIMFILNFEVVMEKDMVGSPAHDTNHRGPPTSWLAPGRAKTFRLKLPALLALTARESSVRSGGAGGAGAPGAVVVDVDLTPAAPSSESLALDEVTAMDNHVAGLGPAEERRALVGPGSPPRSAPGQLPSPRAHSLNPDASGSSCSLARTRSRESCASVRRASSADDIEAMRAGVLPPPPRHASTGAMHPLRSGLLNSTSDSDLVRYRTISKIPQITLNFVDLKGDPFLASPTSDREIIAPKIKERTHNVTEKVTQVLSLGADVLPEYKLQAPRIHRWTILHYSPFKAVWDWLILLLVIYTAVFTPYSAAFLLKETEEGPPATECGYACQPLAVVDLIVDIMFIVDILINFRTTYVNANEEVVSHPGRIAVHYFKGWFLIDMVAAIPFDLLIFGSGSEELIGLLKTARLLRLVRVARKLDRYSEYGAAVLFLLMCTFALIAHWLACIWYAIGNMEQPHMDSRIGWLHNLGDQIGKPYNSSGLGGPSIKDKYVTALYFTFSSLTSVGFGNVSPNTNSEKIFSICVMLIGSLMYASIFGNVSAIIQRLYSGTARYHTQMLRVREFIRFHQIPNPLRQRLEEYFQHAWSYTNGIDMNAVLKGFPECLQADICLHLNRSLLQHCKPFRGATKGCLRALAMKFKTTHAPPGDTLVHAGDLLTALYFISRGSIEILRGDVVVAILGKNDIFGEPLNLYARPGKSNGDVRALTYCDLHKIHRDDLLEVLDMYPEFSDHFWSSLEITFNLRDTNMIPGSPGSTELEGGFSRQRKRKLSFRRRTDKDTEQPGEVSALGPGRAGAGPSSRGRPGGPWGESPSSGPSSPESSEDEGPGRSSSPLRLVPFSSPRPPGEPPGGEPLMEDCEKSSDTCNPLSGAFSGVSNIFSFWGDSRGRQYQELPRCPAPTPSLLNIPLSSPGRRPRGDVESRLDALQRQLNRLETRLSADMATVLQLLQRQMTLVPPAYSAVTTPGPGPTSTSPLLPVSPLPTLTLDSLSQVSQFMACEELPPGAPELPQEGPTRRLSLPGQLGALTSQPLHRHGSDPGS

| SMILES | hERG current change (%, negative = inhibition) at 1uM |
| --- | --- |
| CCn1c(=S)ccc2ccc(OC)cc21 | 4.79% |
| O=C(Cc1ccc(Cl)cc1)NCCN1CCN(C(=O)Cc2ccc(Cl)cc2)CC1 | -18.4% |
| CC1CCCC(NC(=O)c2ccc3c(c2)N(Cc2ccccc2)C(=O)CS3=O)C1C (centres unmarked) | 12.2% |
| O=C(CC1C(=O)NCCN1Cc1cccc(C(F)(F)F)c1)NCCCOc1cccnc1 (centres unmarked) | 15.2% |
| CCOC(=O)/C=c1\s/c(=C\c2c(OCC)ccc3ccccc23)c(=O)n1CC(=O)NCC1CCCO1 (centres unmarked) | 7.26% |
| NC(=O)CN1C(=O)NC(c2ccccc2)(c2ccccc2)C1=O | 16.4% |
| O=C(NCCCN1CCOCC1)c1cnn2c(-c3ccccc3)cc(-c3ccccc3)nc12 | 1.88% |
| O=c1cc(CSc2ccc(Cl)cc2)nc(-c2ccncc2)[nH]1 | 12.3% |
| COc1ccc(-c2csc3nc(-c4ccccc4)oc(=O)c23)cc1OC | 9.88% |
| CN(C(=O)COC(=O)c1cccc(S(=O)(=O)N2CCOCC2)c1)C1CCS(=O)(=O)C1 (centres unmarked) | 11.7% |
| O=C(c1cc2n(n1)C(C(F)(F)F)CC(c1ccco1)N2)N1CCc2ccccc2C1 (centres unmarked) | -13.6% |
| Cc1ccc(-c2nn(-c3ccccc3)cc2/C=C/C(=O)O)o1 | 9.82% |
| CC(C)OCCCNC(=O)c1cc(S(=O)(=O)N2CCc3ccccc32)cn1C | -2.76% |
| CCCCC[n+]1ccn(-c2nc3ccccc3nc2[N-]S(=O)(=O)c2ccc(C)cc2)c1 | 11.3% |
| Nn1cc(-c2ccccc2)nc1SCC(=O)NCC(F)(F)F | 5.69% |
| CC1(C)CC2CC(C)(CN2/C=C2/CCCCC2=O)C1 (centres unmarked) | 0.401% |
| O=C(Nc1ccc(C(=O)N2CCN(c3ccc(F)cc3)CC2)cc1)C1=CSCCO1 | 9.64% |
| O=S(=O)(/N=C(/Nc1cccc2ccccc12)c1ccccc1)c1ccc(Br)cc1 | 19% |
| CCOC(=O)c1cnn(-c2ccc(C(C)C)cc2)c1NC(=O)C1CCC1 | 21.4% |

| SMILES | hERG current change (%, negative = inhibition) at 1uM |
| --- | --- |
| Cc1cc(/C=C(\C#N)C(=O)NCc2ccco2)c(C)[nH]1 | 6.66% |
| CN(C)c1ccc(NC(=O)COC(=O)c2cc(Cl)ccc2[N+](=O)[O-])cc1 | 10.1% |
| COc1cc(C#Cc2c(-c3ccccc3OC)oc3ccccc23)cc(OC)c1 | 6.15% |
| Cc1cc(Cl)ccc1C(=O)C1CCCN(Cc2ccon2)C1 (centres unmarked) | 11.4% |
| CCSC(=O)NC12CC3CC(CC(C3)C1)C2 | 11.3% |
| Cn1c(=O)cc(OCC(=O)NCc2cccs2)c2ccccc21 | 7.51% |
| Cc1cc(C)c(NC(=S)NCC2CCN(C(C)c3ccccc3)C2)c(C)c1 (centres unmarked) | 5.99% |
| CC(/C=N/NC(=O)Cn1nnc(N)n1)=C\c1ccc(C(C)C)cc1 | 8.69% |
| CNC(=S)NNc1nc(N2CCOCC2)nc(N2CCOCC2)n1 | 6.94% |
| COc1ccc(NC(=O)CN2C(=O)C(C)Oc3ccc(C)cc32)cc1 (centres unmarked) | 6.56% |
| O=C(Nc1ccccc1Cl)O/N=C(/c1ccccc1)c1ccccn1 | 11.8% |
| CC(C)=NNC1=NC(C)(C)Cc2ccccc21 | 11.8% |
| COc1ccc(C2C(=O)c3ccccc3C2=O)cc1OC | 0.755% |
| CS(=O)(=O)N(CC(=O)N1CCCC1)c1cccc(F)c1 | 18.3% |
| O=C(O)c1cc(S(=O)(=O)N(Cc2ccccc2)c2ccc(Cl)cc2)ccc1Cl | 13.5% |
| Cc1cc(C)nc(SCc2nnc(SCC(=O)O)n2-c2ccccc2)n1 | 8.79% |
| Cl.Fc1ccccc1C(c1nnnn1Cc1ccc2c(c1)OCO2)N1CCN(Cc2ccco2)CC1 (centres unmarked) | -14.4% |
| CCC/C=C(\CCC)C(NC(=O)Cc1ccccc1)c1ccc(C(=O)OC)cc1 (centres unmarked) | -6.38% |
| CCSC1=N/C(=C\c2ccc(-c3ccccc3[N+](=O)[O-])o2)C(=O)S1 | 16.8% |

| SMILES | hERG current change (%, negative = inhibition) at 1uM |
| --- | --- |
| N/C(=C/C(=O)c1ccccc1O)C(F)(F)F | 7.51% |
| O=C(CSc1nn(-c2ccc(F)cc2)c(=S)s1)N1CCN(C(=O)c2ccco2)CC1 | -64.6% |
| O=S1(=O)N=C(N2CCN(Cc3ccccc3)CC2)c2ccccc21 | -4.6% |
| Cc1ccc(-n2c(-c3ccco3)nc3c(cnn3-c3ccccc3C)c2=O)cc1 | 14.7% |
| CN(C(=O)C1CCN(S(=O)(=O)c2cccc3nonc23)CC1)C1CCCCC1 | 1.74% |
| CCOC(=O)N1CCN(CC(=O)Nc2nnc(C(F)(F)F)s2)CC1 | 20.1% |
| COc1ccc(CN(C(=O)CSc2nnc(-c3c[nH]c4ccccc34)o2)c2ccc(F)cc2)cc1OC | 3.73% |
| Cc1cc(SCc2ccccc2)nc(=O)[nH]1 | 11.7% |
| COCCN(C)Cc1nc(C(c2ccccc2)c2ccccc2)no1 | 7.37% |
| C[C@@H]1CN(Cc2nc(Cc3ccccc3F)no2)C[C@H](C)O1 | 8.68% |
| Cc1cnc2cc([N+](=O)[O-])ccc2n1 | 4.37% |
| CCN1CC(CN(C)Cc2cn(-c3cccc(C)c3)nc2-c2cccc(F)c2)CC1=O (centres unmarked) | 9.85% |
| C(=N\n1cnc2ccccc21)/c1cccnc1 | 3.25% |
| CCN(CC)S(=O)(=O)c1ccc(N2CCCCC2)c(NC(=O)/C(C#N)=C/c2ccc(OC)cc2)c1 | 7.89% |
| NC(=O)C1CCN(c2nc(C3CC3)nc3c2nnn3Cc2ccccc2Cl)CC1 | 11% |
| O=C(O)CC(Cc1ccc(Cl)cc1)C(=O)NCC12CC3CC(CC(C3)C1)C2 (centres unmarked) | 14% |
| CCCCCCOC(=O)C(C#N)c1nc2ccccc2nc1N1CCN(CC)CC1 (centres unmarked) | 12.4% |
| O=C(Nc1cccc(Cl)c1)c1nc[nH]c1C(=O)NCc1ccccc1 | -0.909% |
